# Source: PubChem BioAssay AID2147 (National Center for Advancing Translational Sciences (NCATS), 2009)
# The campaign covered roughly 230,000 compounds. About 3,600 (1.6%) were called active. Inconclusive means that the source gave no clear call. Such entries were picked first, then a sample of the others. The call rests on the fitted dose curve; in most records, active means well fitted inhibition curve with a large enough effect (not every such curve was filed as active); inconclusive means small, poorly fitted or top-dose-only effect, or another doubt; inactive means no such curve, though single readings can be large or run the other way. Potencies of inconclusive entries are doubtful fits and often do not repeat.
# Target: Lysine-specific demethylase 4E (Homo sapiens) (UniProt B2RXH2)
# Test: qHTS Assay for Inhibitors of Human Jumonji Domain Containing 2E (JMJD2E)
# Details: JMJD2E catalytic domain, FDH-coupled NADH fluorescence (FDH is formaldehyde dehydrogenase); series mostly up to 57.1 µM
# Further: nearly all actives have a fitted effect of over 50% in size.
# Potency means the concentration at half of the fitted maximal effect; tags describe the fitted curve by direction and shape.
# UniProt B2RXH2, sequence (B2RXH2 whole entry, looked up, the tested form may be a part): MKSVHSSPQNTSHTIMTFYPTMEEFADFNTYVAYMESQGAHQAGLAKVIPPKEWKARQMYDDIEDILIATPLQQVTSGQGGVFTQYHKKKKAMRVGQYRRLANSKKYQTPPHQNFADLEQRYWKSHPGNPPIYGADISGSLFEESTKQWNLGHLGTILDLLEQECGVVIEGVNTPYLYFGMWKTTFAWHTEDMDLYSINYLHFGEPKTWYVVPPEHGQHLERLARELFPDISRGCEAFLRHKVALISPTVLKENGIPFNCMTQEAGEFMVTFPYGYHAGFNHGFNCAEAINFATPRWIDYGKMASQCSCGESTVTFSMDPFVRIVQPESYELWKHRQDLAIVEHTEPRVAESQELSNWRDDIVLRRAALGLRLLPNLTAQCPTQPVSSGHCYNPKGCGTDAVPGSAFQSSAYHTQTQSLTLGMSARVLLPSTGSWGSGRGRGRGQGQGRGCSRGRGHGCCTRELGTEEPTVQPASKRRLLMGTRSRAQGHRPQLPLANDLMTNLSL
row,Structure (SMILES),Potency
1,S=C(NCc1ccc2[nH]c3c(c2c1)CCCC3)Nc1ccccc1Cl,inactive
2,COCCNCCCCSc1ccc(Cl)cc1,"inconclusive: 0.0056 µM [inhibitor, full curve, poor fit]"
3,CCCOc1ccc(-c2nnc(-c3ccco3)o2)cc1,"inconclusive: 28.2 µM [inhibitor, partial curve]"
4,COC(=O)C1(CC(C)C)C=C2C(=C(c3ccccc3)C(=O)C2C)CN1 (stereo not drawn),"inconclusive: 35.5 µM [inhibitor, single point]"
5,CCN(CC)CCNC(=O)c1ccc(NC(=O)c2c(F)cccc2Cl)cc1,"inconclusive: 10 µM [inhibitor, partial curve, poor fit]"
6,COc1ccc(Nc2oc(-c3ccc(OC)cc3)nc2C#N)cc1,"inconclusive: 35.5 µM [inhibitor, partial curve]"
7,CN(C)CCN(C(=O)c1ccc(Br)s1)c1nc2cc3c(cc2s1)OCCO3,"inconclusive: 3.98 µM [inhibitor, single point]"
8,CC(C)CN1CCC(C(=O)NCC2CCCO2)CC1 (stereo not drawn),"inconclusive: 35.5 µM [inhibitor, single point]"
9,CC1=C(C(=O)N2CCOCC2)C(c2ccc(Cl)cc2)NC(=S)N1 (stereo not drawn),inactive
10,CN1CCN(c2nc3ccccn3c(=O)c2/C=C(\C#N)S(=O)(=O)c2ccccc2)CC1,inactive
11,COc1cc(C(=O)NCc2ccc(-c3nc4ccccc4s3)cc2)cc(OC)c1OC,"inconclusive: 28.2 µM [inhibitor, single point]"
12,CCSC1=C(C#N)C(c2ccccc2Cl)CC(=O)N1 (stereo not drawn),inactive
13,O=C1CCC=C1C(O)c1ccc2c(c1)OCO2 (stereo not drawn),inactive
14,C=CCNC(=O)NC(=O)COC(=O)/C(C#N)=C/c1cc(C)n(CCC(C)C)c1C,"inconclusive: 28.2 µM [inhibitor, partial curve]"
15,CNC(=O)c1oc(-c2ccc(Cl)cc2)nc1C,"inconclusive: 31.6 µM [inhibitor, single point]"
16,Cc1nnc(NC(=O)c2ccc3ccccc3c2)o1,"inconclusive: 17.8 µM [inhibitor, partial curve, poor fit]"
17,CNC(=O)c1cc2c(=O)n3cccc(C)c3nc2n(C(C)C)c1=N,"inconclusive: 31.6 µM [inhibitor, partial curve]"
18,O=C(O)c1nc2nc(Cl)c(Cl)nc2[nH]1,"inconclusive: 39.8 µM [inhibitor, single point]"
19,CN(CCc1ccccn1)C1CC(=O)N(c2ccc(Cl)cc2)C1=O (stereo not drawn),inactive
20,COc1cc(-c2nnc(COC(=O)c3cc(C)nc4ccc(C)cc34)o2)cc(OC)c1OC,"inconclusive: 39.8 µM [inhibitor, single point]"
21,Cc1cc2c(c(=O)n1C)C(Cc1ccccc1)C(C#N)=C(N)O2 (stereo not drawn),"inconclusive: 25.1 µM [inhibitor, partial curve]"
22,COc1ccc(CCN2C(=O)CC(N3CCN(C/C=C/c4ccccc4)CC3)C2=O)cc1OC (stereo not drawn),inactive
23,Cc1noc(C)c1-c1ccc2ncnc(NC3CC3)c2c1,inactive
24,COc1ccc(OC)c(/C=N\NC(=O)CC(=O)NCCc2ccccc2)c1,"inconclusive: 31.6 µM [inhibitor, partial curve]"
25,O=C(NCC(c1cccs1)N1CCOCC1)c1ccc(Cl)c(S(=O)(=O)N2CCOCC2)c1 (stereo not drawn),"inconclusive: 39.8 µM [inhibitor, single point]"

row,Structure (SMILES),Potency
1,COC(OC)c1ccc(C#N)c(=O)[nH]1,"inconclusive: 28.2 µM [inhibitor, partial curve]"
2,CCc1cc2c(=O)c(-c3nc4ccccc4n3C)c(C)oc2c(CN2CCN(CCO)CC2)c1O,"inconclusive: 31.6 µM [inhibitor, partial curve]"
3,O=C(NN1CCOCC1)c1cccc(COc2cccc(Br)c2)c1,inactive
4,NS(=O)(=O)c1ccc(NC(=S)NC(=O)c2ccc3c(c2)OCO3)cc1,inactive
5,COc1ccc(-c2cc(C(=O)O)c(C)o2)cc1OC,"inconclusive: 28.2 µM [inhibitor, partial curve]"
6,COC(=O)C1(Cc2ccccc2)C=C2C(=C(C)C(=O)C2C)CN1 (stereo not drawn),"inconclusive: 35.5 µM [inhibitor, single point]"
7,COc1cc(C)c(NC(c2ccccc2)c2ccccc2)cc1OC,inactive
8,OC(COC(c1ccc(Cl)cc1)c1ccc(Cl)cc1)CN1CCN(c2ccccn2)CC1 (stereo not drawn),"inconclusive: 35.5 µM [inhibitor, single point]"
9,C=CCn1c(C(CCCC)CC(O)COCC(C)C)n[nH]c1=S (stereo not drawn),inactive
10,N#CCc1c(C#N)c(N)nc(N2CCN(S(=O)(=O)c3ccccc3)CC2)c1C#N,"inconclusive: 28.2 µM [inhibitor, partial curve]"
11,C1=C(c2ccccc2)N2CCN=C2S1,inactive
12,COc1cc(/C=N/NC(=O)CCNC(=O)c2ccccc2Cl)ccc1O,"inconclusive: 39.8 µM [inhibitor, single point]"
13,CCOC(=O)c1c(NC(=O)CSc2n[nH]c(CNc3ccccc3)n2)sc(C)c1C,inactive
14,COc1ccc(/C=C2\CN(Cc3ccccc3)C/C(=C\c3ccc(OC)cc3OC)C2=O)c(OC)c1,inactive
15,COCc1nnc(NC(=O)CSc2ccc(C)cc2)s1,inactive
16,CC(=O)Nc1cccc(-c2nc3ccccc3s2)c1,"inconclusive: 35.5 µM [inhibitor, single point]"
17,Cc1cc(-c2ccccc2)n2nc(C)c(C#N)c2n1,"inconclusive: 35.5 µM [inhibitor, single point]"
18,N/C(CSc1nc(-c2ccccc2)c(-c2ccccc2)o1)=N\O,"inconclusive: 39.8 µM [inhibitor, single point]"
19,CC1=C(CCC(=O)O)c2cc3nc(cc4[nH]c(cc5[nH]c(cc1n2)c(C)c5C(C)O)c(C)c4C(C)O)C(C)=C3CCC(=O)O (stereo not drawn),inactive
20,Cc1cc(C)c2[nH]c(=O)c(C(c3nnnn3CC3CCCO3)N3CCCC(C)C3)cc2c1 (stereo not drawn),"inconclusive: 25.1 µM [inhibitor, partial curve]"
21,CC(C(=O)O)N1C(=O)/C(=C/c2cccn2C)SC1=S (stereo not drawn),inactive
22,Cc1cc(NC(=O)CSc2nncn2N)no1,inactive
23,Cc1ccc(S(=O)(=O)N2CCCCC2)cc1NC(=O)Cn1ccc(C(F)(F)F)n1,inactive
24,O=C(c1ccc(S(=O)(=O)c2ccccc2Cl)c([N+](=O)[O-])c1)N1CCCCCC1,inactive
25,COc1ccccc1-c1nc2ccccc2nc1-c1ccccc1,"inconclusive: 39.8 µM [inhibitor, single point]"

row,Structure (SMILES),Potency
1,N#Cc1c(N)nc2c(c1-c1ccc(Br)s1)CCCC2,inactive
2,O=c1c[n+]([O-])c2ccccc2n1OCc1c(F)cccc1F,"inconclusive: 35.5 µM [inhibitor, single point]"
3,CCOc1cc(-c2nc(C)c(C(C)=O)n2O)ccc1OCC(=O)Nc1cccc(C)c1,"inconclusive: 39.8 µM [inhibitor, single point]"
4,O=C(c1cccc(Cl)c1)N1CCN(c2ncnc3c2cnn3-c2ccccc2)CC1,"inconclusive: 31.6 µM [inhibitor, single point]"
5,COc1ccc(-c2cc(C(F)(F)F)n3nc(C(=O)NCCCn4ccnc4)cc3n2)cc1,"inconclusive: 0.631 µM [inhibitor, partial curve]"
6,COC(=O)CNC(=O)C1(C)C=CC2(CCCCC2)N1C(=O)OC (stereo not drawn),inactive
7,CCCCNC(=O)c1ccc2nc(-c3ccco3)c(-c3ccco3)nc2c1,"inconclusive: 28.2 µM [inhibitor, partial curve]"
8,O=C(Cc1cc(=O)[nH][nH]1)N/N=C/c1c(Cl)cccc1Cl,"inconclusive: 39.8 µM [inhibitor, single point]"
9,CCOC(=O)/C(=C\c1ccc([N+](=O)[O-])cc1)C(=O)c1cc(C(C)=O)c(Nc2ccccc2)s1,"inconclusive: 39.8 µM [inhibitor, single point]"
10,O=C1NC(=O)/C(=C/c2cccc(O)c2)N1,"inconclusive: 22.4 µM [inhibitor, single point]"
11,Cn1c(-c2sccc2OCc2ccc(Cl)cc2Cl)n[nH]c1=S,"inconclusive: 35.5 µM [inhibitor, single point]"
12,Cc1cccn2c(=O)c3cc(C#N)c(=NC(=O)c4cccs4)n(CC(C)C)c3nc12,"inconclusive: 0.794 µM [inhibitor, full curve]"
13,Cc1ccc(NS(=O)(=O)c2ccc(C(=O)N3CCN(c4ccccn4)CC3)cc2)cc1,inactive
14,Oc1ccc2oc3c(c2c1/C=N/n1cnnc1)CCCC3,"inconclusive: 35.5 µM [inhibitor, single point]"
15,COc1ccc(-c2cc(-c3cccs3)nc(OC)c2C#N)cc1OC,"inconclusive: 28.2 µM [inhibitor, partial curve]"
16,COc1ccc(C(=O)Cc2ccccc2)cc1OC,inactive
17,C=CCn1c(O)c(CN2CCN(Cc3ccccc3)CC2)c(C)c(C#N)c1=O,"inconclusive: 28.2 µM [inhibitor, single point]"
18,O=C(NCc1ccco1)c1ccccc1NS(=O)(=O)c1ccc2c(c1)OCCO2,"inconclusive: 28.2 µM [inhibitor, partial curve]"
19,Cc1ccc(-c2csc3ncnc(NCCN4CCOCC4)c23)cc1,inactive
20,COc1ccc(N2CCN(Cc3oc(CO)cc(=O)c3O)CC2)cc1,"inconclusive: 28.2 µM [inhibitor, single point]"
21,CCCCCCNC(=O)c1c(O)c2ccccc2[nH]c1=O,inactive
22,O=C(CCCOc1ccc(Cl)cc1Cl)NCc1ccncc1,inactive
23,C=CCn1c(=O)c(C#N)cc2c(=O)n3ccccc3nc21,"inconclusive: 25.1 µM [inhibitor, partial curve]"
